Assay results published in US11851697B2, “Ex vivo protease activity detection for disease detection/diagnostic, staging, monitoring and treatment” (Glympse Bio, Inc., priority 2020, dated 2023).
Ends that are not written are not given here. CPQ2 = quencher

Tests used:
[1] = tested on: cathepsin and/or MMP protease activities; assay: Ex vivo probe cleavage in plasma of healthy, NASH regression and NASH progression mice; assay type: biochemical; details: K2EDTA plasma collected at 20 weeks
Source text: Plasma samples were collected from all animals at 20 weeks.
The probes showing the most differentiation in NASH were linked to cathepsin and/or MMP protease activities.

[2] = tested on: caspase activity in hepatitis; assay: Ex vivo probe cleavage in plasma of Jo2 fulminant hepatitis mice; assay type: biochemical; details: mouse plasma 3 hours after Jo2 injection vs healthy
Procedure: Fulminant hepatitis is induced after injection intraperitoneal of monoclonal antibody anti-CD95 (Jo2, BD biosciences, 4 ug/animal), and mouse plasma samples were collected 3 hours after Jo2 injection.

Granzyme B = Granzyme B (Homo sapiens, UniProt P10144); assay: Ex vivo probe cleavage in COVID+ vs COVID- swab samples; details: for number of active samples: adjusted RFU across timepoints
Sequence of Granzyme B (P10144 21-247): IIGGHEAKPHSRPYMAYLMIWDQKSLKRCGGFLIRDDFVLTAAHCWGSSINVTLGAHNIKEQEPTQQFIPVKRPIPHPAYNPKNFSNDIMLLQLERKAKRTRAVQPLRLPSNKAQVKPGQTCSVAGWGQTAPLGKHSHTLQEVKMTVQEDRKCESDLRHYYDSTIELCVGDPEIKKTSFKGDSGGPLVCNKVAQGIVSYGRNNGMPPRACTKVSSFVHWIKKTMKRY

Probe #647: Caspase centric probe; signal measures the activity of protease Granzyme B (GAIEPDSGGK(CPQ2); not fully specified (N-terminus, C-terminus); also: 5FAM (place not given here), PEG2 (place not given here), C-terminal amide)
differentiation among healthy, regression and NASH samples [1]: can differentiate
contrast in Jo2 hepatitis model [2]: show contrast that is specific and sensitive to the Jo2 model
difference between COVID+ and COVID- samples (Granzyme B; COVID+ (n=18) vs COVID- (n-19), p=0.029): significant differences
number of active samples (Granzyme B; COVID+ swab samples): 7 samples
number of active samples (Granzyme B; COVID- swab samples): 1 sample
protease whose activity the probe signal measures (Granzyme B; inhibition experiments, healthy vs COVID samples): measures the activity of protease Granzyme B
differentiation between COVID+ and COVID- samples (Granzyme B; swabs in saline): key differentiator
